# Experimental data from the supplement of paper PMC3334620.
# Whole data set: some 33,000 sequences, median “E-score (-0.5 to 0.5)” near -0.036, cut for the highest 2% near 0.37. Some of the results follow.
# Molecular target: T1, Yer064c (UniProt P40041)
# T1 sequence: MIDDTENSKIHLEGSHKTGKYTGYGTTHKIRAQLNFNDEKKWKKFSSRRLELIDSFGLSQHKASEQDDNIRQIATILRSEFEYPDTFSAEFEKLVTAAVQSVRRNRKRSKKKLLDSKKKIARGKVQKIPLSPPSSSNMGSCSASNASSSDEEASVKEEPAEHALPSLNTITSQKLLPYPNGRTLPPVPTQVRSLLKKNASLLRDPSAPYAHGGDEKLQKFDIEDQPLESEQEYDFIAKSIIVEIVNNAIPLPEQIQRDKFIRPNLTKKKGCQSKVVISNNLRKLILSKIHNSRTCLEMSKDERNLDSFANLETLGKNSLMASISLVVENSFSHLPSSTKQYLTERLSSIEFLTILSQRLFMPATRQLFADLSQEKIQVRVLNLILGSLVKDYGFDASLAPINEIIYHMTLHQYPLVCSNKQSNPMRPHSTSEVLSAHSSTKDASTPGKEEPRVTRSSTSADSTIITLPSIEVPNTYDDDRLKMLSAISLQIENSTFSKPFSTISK
# Experiment: PBM E-score (8-mer binding enrichment) (E-score (-0.5 to 0.5)); higher = stronger / more preferred TF binding; most listed sequences are background and not binding sites
# Conditions: protein concentration: 200 nM; construct: GST-full length
# Outline: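 Universal all-10-mer Agilent arrays, double-stranded by primer extension on fresh or once-stripped slides, were probed with about 100-200 nM GST-tagged yeast transcription factors made by PURExpress. Fluorescent anti-GST detected bound protein, and masliner normalised the scans. E-scores from the Universal PBM Analysis Suite were given to each ungapped eight-base word pooled with its reverse complement.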
row,Sequence,PBM E-score
1,AGCATTTC,-0.121
2,GACCCCCC,-0.351
3,ATACTTCG,0.06
4,CTTCGGAA,0.1
5,TAAAAGCA,-0.0857
6,TCTTGGAA,0.0958
7,AGGCCACC,-0.301
8,AGAATAAT,-0.053
9,GATCTTGA,0.125
10,AAGCGCCG,-0.118
11,CCAACAAC,0.102
12,GGACGAAA,-0.114
13,AAAGTTGA,0.0131
14,CCTCTACA,-0.203
15,ATGTTTGG,0.0509
16,ACGGCTGA,0.205
17,AATCCTCC,0.0546
18,CCTTCTTC,-0.299
19,AGCGACAC,-0.0184
20,AACTGTCG,-0.0262
21,CTATCTCC,-0.238
22,AGCCGACA,-0.0612
23,TGAACGCA,0.144
24,CGGTGATC,0.0315
25,AATCTTCG,0.25

row,Sequence,PBM E-score
1,ATAAGCAT,-0.251
2,CAAGATAC,-0.0857
3,CAGGTGGG,-0.204
4,ATGGAAGA,0.0433
5,ATGTATAA,0.0409
6,AAGCGATG,-0.146
7,TGGGCCAA,-0.19
8,GAAAACAA,-0.0843
9,GGAGATTA,0.188
10,CATTACGC,-0.0263
11,ATGTGGGC,0.0453
12,CGATAGGA,-0.00722
13,ACGGACGG,-0.147
14,CACAGCTA,0.048
15,GCTCCAGA,-0.0739
16,AATCCCAC,0.0254
17,CGTCGCCC,-0.186
18,CCCCAGCC,-0.243
19,TTAGCCAA,0.0652
20,TAACAGAA,0.126
21,CGCACCCC,-0.3
22,CGTTCGCA,0.0816
23,CCGGGTAG,-0.105
24,CGTAACGA,-0.12
25,ACTGCGGC,-0.0381

row,Sequence,PBM E-score
1,GCTGGGAA,-0.133
2,ATCTCTCA,0.034
3,TAAGTGTA,0.172
4,CTCCCAGC,-0.211
5,CCTTTATC,-0.243
6,TAAGGATA,-0.084
7,ATTATTCA,0.199
8,CATTTTGA,0.168
9,CGCTTAAA,0.0753
10,CGACCCCG,-0.286
11,AGACTACG,0.322
12,AAATATAG,0.143
13,GCATACAC,-0.114
14,GAGGCTCA,0.0765
15,CAGTGTAC,-0.091
16,TAACAATA,0.0823
17,ATGGTTGA,0.249
18,ACGGCCAC,-0.284
19,CACAACTA,0.0429
20,CTCACAAA,0.232
21,AATTCAGG,-0.204
22,CGCGTGGC,-0.0741
23,AATCAATG,0.236
24,GGTGCTAA,0.00442
25,AATCTACG,-0.0149

row,Sequence,PBM E-score
1,GTGTGAGA,0.136
2,AATGTTAG,-0.0796
3,GCTCCTGA,-0.0761
4,CACAAGCG,-0.127
5,GAGAGAAC,-0.058
6,CGCAGGGC,0.0685
7,ACTGGAAT,-0.085
8,TATCTTCA,0.0425
9,CGGAATAG,0.097
10,CGGTTGCC,0.026
11,GGGGCAAA,-0.35
12,GCCGAAGA,0.0984
13,ACTGCAAC,-0.00506
14,GCCTAGCA,-0.235
15,AAATGCCT,-0.305
16,GACATGTA,0.0366
17,CATCTAAA,0.0832
18,AATATCCT,-0.0515
19,ATCCGGTC,-0.135
20,GTCCATAA,-0.161
21,CCGGTCAG,-0.221
22,ACTAGGTG,0.0089
23,AGCGCCCA,-0.214
24,GTCCGCTA,0.102
25,GAAGTGAA,0.00035

row,Sequence,PBM E-score
1,ATTAGGTA,0.0169
2,GCGCCGCA,-0.324
3,ATCTCCCA,-0.0716
4,ATCTTACC,0.0346
5,GCATAGGA,-0.0695
6,GCGCATAA,-0.0865
7,CAGAGTAC,0.109
8,AGAATCTG,-0.0207
9,GCTAAAAA,0.0668
10,CACGCATA,-0.138
11,ACGTCTTA,-0.103
12,CCGCGGCC,-0.238
13,CGCTGCCG,-0.17
14,GACGGGCC,-0.298
15,TAACTAAA,0.0425
16,TGCCTAAA,-0.234
17,CAACGCTG,-0.207
18,AGCGTTTA,-0.164
19,AGTGCTCC,-0.147
20,CGAACCAC,0.00756
21,AACCGATT,0.0217
22,AAAATGTT,-0.122
23,GTAAATCA,0.349
24,GCTGGACC,-0.21
25,GAGTAATC,0.316

row,Sequence,PBM E-score
1,ATGTATCA,0.181
2,AGAATCAG,0.325
3,CAGGCATA,-0.0996
4,GATAGCAC,-0.202
5,GACTGCTC,0.208
6,TCCCACCA,-0.172
7,CGGAACAG,0.0244
8,GAAGCCGC,-0.262
9,AAGTACGA,0.0389
10,GGGACGGA,-0.374
11,CACACTAA,0.126
12,CCGTCTCC,-0.236
13,CAGGAGCG,-0.185
14,AAGGGTGA,0.103
15,GTGAGCGA,-0.0985
16,AGGCTGAA,-0.0156
17,GACCGTGC,-0.142
18,AGAGACCC,-0.233
19,ACTCGTAT,0.107
20,ACTTAACT,0.224
21,CAATGGAC,-0.0225
22,CTCGGGCC,-0.0244
23,CTGGGCTC,-0.201
24,GAGCGAAA,0.0368
25,CCCAGACC,-0.294

row,Sequence,PBM E-score
1,CGAGTCCA,0.0419
2,ACCACAAC,0.0173
3,ATTTAGCG,0.0246
4,CCGCCCAG,-0.0878
5,GACTGCTA,0.127
6,ACTGCATA,0.207
7,ACAACCAA,0.0473
8,GAGCATAC,-0.118
9,AAAGCTTA,-0.0514
10,CGAATTCC,-0.165
11,AGTCCCAC,0.153
12,ATGCAATA,-0.0465
13,TCACTTCA,0.0139
14,GCAACAAC,-0.163
15,CGAAATAA,0.11
16,AGCACCGG,-0.0612
17,GGTGTAGA,-0.12
18,GCCTGGCA,-0.261
19,ATCTCCAC,-0.166
20,AATAAAAT,0.247
21,AAGCGTTC,-0.111
22,GATTCCCA,0.208
